# Source: the supplement of paper PMC8728848
# The other results are listed elsewhere or left out.
# B1: Banana lectin (Musa acuminata) (protein)
# chain: MNGAIKVGAHGGNGGSAFDMGPAYRIISVKIFSGDVVDGVDVTFTYYGKTETRHYGGSGGTPHEIVLQEGEYLVGMAGEVANYHGAVVLGKLGFSTNKKAYGPFGNTGGTPFSLPIAAGKISGFFGRGGKFLDAIGVYLEPLEHHHHHH
# Columns and labels:
# Test in all cases: glycan array binding signal (z-score within array); higher = stronger binding
# Conditions in all cases: glycan notation: IUPAC condensed, linker removed; mutation: W10H
# [1] = target: Man(a1-2)Man(a1-3)[Man(a1-2)Man(a1-6)]Man
# Summary of the method: (§1)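 The binding signal is a Z-score computed within each array and averaged over linkers. Arrays of the same protein sequence at different concentrations or buffers were also averaged together. Data originate from 3228 arrays in the Consortium for Functional Glycomics database, kept only where the protein sequence was available.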
# [2] = target: Man(a1-2)Man(a1-3)[Man(a1-2)Man(a1-6)]Man(a1-6)[Man(a1-2)Man(a1-2)Man(a1-3)]Man
# Summary of the method: as §1
# [3] = target: Man(a1-2)Man(a1-3)[Man(a1-2)Man(a1-6)]Man(a1-6)[Man(a1-2)Man(a1-2)Man(a1-3)]Man(b1-4)GlcNAc(b1-4)GlcNAc
# Summary of the method: as §1
# [4] = target: Man(a1-2)Man(a1-3)[Man(a1-6)]Man(a1-6)[Man(a1-2)Man(a1-3)]Man(b1-4)GlcNAc(b1-4)GlcNAc
# Summary of the method: as §1
# [5] = target: Man(a1-2)Man(a1-6)[Man(a1-3)]Man(a1-6)[Man(a1-2)Man(a1-2)Man(a1-3)]Man
# Summary of the method: as §1
# [6] = target: Man(a1-2)Man(a1-6)[Man(a1-3)]Man(a1-6)[Man(a1-2)Man(a1-2)Man(a1-3)]Man(b1-4)GlcNAc(b1-4)GlcNAc
# Summary of the method: as §1
# Man(a1-3)[Man(a1-6)]Man = target: Man(a1-3)[Man(a1-6)]Man
# Summary of the method: as §1
# [7] = target: Man(a1-3)[Man(a1-6)]Man(a1-6)[Man(a1-2)Man(a1-3)]Man(b1-4)GlcNAc(b1-4)GlcNAc
# Summary of the method: as §1
# [8] = target: Man(a1-3)[Man(a1-6)]Man(a1-6)[Man(a1-3)]Man
# Summary of the method: as §1
# [9] = target: Man(a1-3)[Man(a1-6)]Man(a1-6)[Man(a1-3)]Man(b1-4)GlcNAc(b1-4)GlcNAc
# Summary of the method: as §1
# [10] = target: Man(a1-3)[Man(a1-6)]Man(b1-4)GlcNAc(b1-4)GlcNAc
# Summary of the method: as §1
# [11] = target: Man(a1-3)[Man(a1-6)]Man(b1-4)GlcNAc(b1-4)[Fuc(a1-6)]GlcNAc
# Summary of the method: as §1
# Man(a1-6)Man = target: Man(a1-6)Man
# Summary of the method: as §1
# Man(b1-4)GlcNAc = target: Man(b1-4)GlcNAc
# Summary of the method: as §1
# MurNAc(b1-4)GlcNAc = target: MurNAc(b1-4)GlcNAc
# Summary of the method: as §1
# Neu5Ac(a2-3)Gal = target: Neu5Ac(a2-3)Gal
# Summary of the method: as §1
# [12] = target: Neu5Ac(a2-3)Gal(b1-3)GalNAc
# Summary of the method: as §1
# [13] = target: Neu5Ac(a2-3)Gal(b1-3)GalNAc(b1-3)Gal(a1-4)Gal(b1-4)Glc
# Summary of the method: as §1
# [14] = target: Neu5Ac(a2-3)Gal(b1-3)GalNAc(b1-4)Gal(b1-4)Glc
# Summary of the method: as §1
# [15] = target: Neu5Ac(a2-3)Gal(b1-3)GalNAc(b1-4)[Neu5Ac(a2-3)]Gal(b1-4)Glc
# Summary of the method: as §1
# [16] = target: Neu5Ac(a2-3)Gal(b1-3)GalNAc(b1-4)[Neu5Ac(a2-8)Neu5Ac(a2-3)]Gal(b1-4)Glc
# Summary of the method: as §1
# [17] = target: Neu5Ac(a2-3)Gal(b1-3)GalNAc6S
# Summary of the method: as §1
# [18] = target: Neu5Ac(a2-3)Gal(b1-3)GlcNAc
# Summary of the method: as §1
# [19] = target: Neu5Ac(a2-3)Gal(b1-3)GlcNAc(b1-2)Man
# Summary of the method: as §1
# [20] = target: Neu5Ac(a2-3)Gal(b1-3)GlcNAc(b1-2)Man(a1-3)[GlcNAc(b1-4)][Neu5Ac(a2-3)Gal(b1-3)GlcNAc(b1-2)Man(a1-6)]Man(b1-4)GlcNAc(b1-4)GlcNAc
# Summary of the method: as §1
# [21] = target: Neu5Ac(a2-3)Gal(b1-3)GlcNAc(b1-2)Man(a1-3)[Neu5Ac(a2-3)Gal(b1-3)GlcNAc(b1-2)Man(a1-6)]Man(b1-4)GlcNAc(b1-4)GlcNAc
# Summary of the method: as §1
# [22] = target: Neu5Ac(a2-3)Gal(b1-3)GlcNAc(b1-2)[Neu5Ac(a2-3)Gal(b1-3)GlcNAc(b1-4)]Man(a1-6)[Neu5Ac(a2-3)Gal(b1-3)GlcNAc(b1-2)Man(a1-3)]Man(b1-4)GlcNAc(b1-4)GlcNAc
# Summary of the method: as §1
# [23] = target: Neu5Ac(a2-3)Gal(b1-3)GlcNAc(b1-3)Gal(b1-3)GlcNAc
# Summary of the method: as §1
# [24] = target: Neu5Ac(a2-3)Gal(b1-3)GlcNAc(b1-3)Gal(b1-4)GlcNAc
# Summary of the method: as §1
# [25] = target: Neu5Ac(a2-3)Gal(b1-3)GlcNAc(b1-3)GalNAc
# Summary of the method: as §1
# [26] = target: Neu5Ac(a2-3)Gal(b1-3)GlcNAc(b1-6)GalNAc
# Summary of the method: as §1
# [27] = target: Neu5Ac(a2-3)Gal(b1-3)GlcNAc6S
# Summary of the method: as §1
# [28] = target: Neu5Ac(a2-3)Gal(b1-3)[Fuc(a1-4)]GlcNAc
# Summary of the method: as §1
# [29] = target: Neu5Ac(a2-3)Gal(b1-3)[Fuc(a1-4)]GlcNAc(b1-3)Gal(b1-3)[Fuc(a1-4)]GlcNAc
# Summary of the method: as §1
# [30] = target: Neu5Ac(a2-3)Gal(b1-3)[Fuc(a1-4)]GlcNAc(b1-3)Gal(b1-4)[Fuc(a1-3)]GlcNAc
# Summary of the method: as §1
# [31] = target: Neu5Ac(a2-3)Gal(b1-3)[GlcNAc(b1-6)]GalNAc
# Summary of the method: as §1
# [32] = target: Neu5Ac(a2-3)Gal(b1-3)[Neu5Ac(a2-6)]GalNAc
# Summary of the method: as §1
# [33] = target: Neu5Ac(a2-3)Gal(b1-3)[Neu5Ac(a2-6)]GlcNAc(b1-3)[Fuc(a1-3)[Gal(b1-4)]GlcNAc(b1-6)]Gal(b1-4)Glc
# Summary of the method: as §1
# [34] = target: Neu5Ac(a2-3)Gal(b1-3)]Neu5Ac(a2-3)Gal(b1-4)]GlcNAc
# Summary of the method: as §1
# Neu5Ac(a2-3)Gal(b1-4)Glc = target: Neu5Ac(a2-3)Gal(b1-4)Glc
# Summary of the method: as §1
# [35] = target: Neu5Ac(a2-3)Gal(b1-4)GlcNAc
# Summary of the method: as §1
# [36] = target: Neu5Ac(a2-3)Gal(b1-4)GlcNAc(b1-2)Man
# Summary of the method: as §1
# [37] = target: Neu5Ac(a2-3)Gal(b1-4)GlcNAc(b1-2)Man(a1-3)[GlcNAc(b1-4)][Neu5Ac(a2-3)Gal(b1-4)GlcNAc(b1-2)Man(a1-6)]Man(b1-4)GlcNAc(b1-4)GlcNAc
# Summary of the method: as §1
# [38] = target: Neu5Ac(a2-3)Gal(b1-4)GlcNAc(b1-2)Man(a1-3)[Neu5Ac(a2-3)Gal(b1-4)GlcNAc(b1-2)Man(a1-6)]Man(b1-4)GlcNAc(b1-4)GlcNAc
# Summary of the method: as §1
# [39] = target: Neu5Ac(a2-3)Gal(b1-4)GlcNAc(b1-2)Man(a1-3)[Neu5Ac(a2-3)Gal(b1-4)GlcNAc(b1-2)Man(a1-6)]Man(b1-4)GlcNAc(b1-4)[Fuc(a1-6)]GlcNAc
# Summary of the method: as §1
binder,measurement,setting,value
B1,glycan array binding signal (z-score),[1],2.86
same,glycan array binding signal (z-score),[2],6.5
same,glycan array binding signal (z-score),[3],2.96
same,glycan array binding signal (z-score),[4],9.34
same,glycan array binding signal (z-score),[5],5.18
same,glycan array binding signal (z-score),[6],6.56
same,glycan array binding signal (z-score),Man(a1-3)[Man(a1-6)]Man,2.82
same,glycan array binding signal (z-score),[7],13.5
same,glycan array binding signal (z-score),[8],-0.126
same,glycan array binding signal (z-score),[9],3.07
same,glycan array binding signal (z-score),[10],6.6
same,glycan array binding signal (z-score),[11],2.33
same,glycan array binding signal (z-score),Man(a1-6)Man,-0.124
same,glycan array binding signal (z-score),Man(b1-4)GlcNAc,-0.183
same,glycan array binding signal (z-score),MurNAc(b1-4)GlcNAc,-0.177
same,glycan array binding signal (z-score),Neu5Ac(a2-3)Gal,-0.197
same,glycan array binding signal (z-score),[12],-0.138
same,glycan array binding signal (z-score),[13],-0.167
same,glycan array binding signal (z-score),[14],-0.186
same,glycan array binding signal (z-score),[15],-0.187
same,glycan array binding signal (z-score),[16],-0.172
same,glycan array binding signal (z-score),[17],-0.191
same,glycan array binding signal (z-score),[18],-0.166
same,glycan array binding signal (z-score),[19],-0.227
same,glycan array binding signal (z-score),[20],-0.163
same,glycan array binding signal (z-score),[21],-0.192
same,glycan array binding signal (z-score),[22],0.013
same,glycan array binding signal (z-score),[23],-0.174
same,glycan array binding signal (z-score),[24],-0.201
same,glycan array binding signal (z-score),[25],-0.169
same,glycan array binding signal (z-score),[26],-0.186
same,glycan array binding signal (z-score),[27],-0.145
same,glycan array binding signal (z-score),[28],-0.171
same,glycan array binding signal (z-score),[29],-0.185
same,glycan array binding signal (z-score),[30],-0.102
same,glycan array binding signal (z-score),[31],-0.103
same,glycan array binding signal (z-score),[32],-0.182
same,glycan array binding signal (z-score),[33],-0.16
same,glycan array binding signal (z-score),[34],-0.181
same,glycan array binding signal (z-score),Neu5Ac(a2-3)Gal(b1-4)Glc,-0.159
same,glycan array binding signal (z-score),[35],-0.147
same,glycan array binding signal (z-score),[36],-0.121
same,glycan array binding signal (z-score),[37],-0.162
same,glycan array binding signal (z-score),[38],-0.188
same,glycan array binding signal (z-score),[39],-0.115
